Here are results for 23 molecules from ChEMBL document CHEMBL4888484, “Replenishing the malaria drug discovery pipeline: Screening and hit evaluation of the MMV Hit Generation Library 1 (HGL1) against asexual blood stage Plasmodium falciparum ,using a nano luciferase reporter read-out” (2022).

About 540 (0.36%) of roughly 150,000 compounds showed an effect of 50% or more. The list shows a part of the results.

This assay concerns Plasmodium falciparum. The assay can be described thus: Primary screen in NF54 nanoGlo assay, in single point, at 2uM, 72h; a lower Z score goes with more inhibition. In kind it is functional, Erythrocyte. To be noted: timepoint 72 hour.
Take `COCCn1nc(C)c(NCc2cscn2)c1C`: the “% Inhibition” value is -16% and the Z score turned out to be 1.73.
For `COCC1(CS(=O)(=O)N[C@@H](C)Cc2c(C)noc2C)CCC1`, in that order: 33% and -3.73.
The corresponding values for `O=C1CC[C@H](C(=O)N2CCCCCCC2)CN1Cc1ccccn1` are -17% and 3.26.
For `COc1ccc([C@@H](C)COC(=O)c2ncoc2C)cc1`, in that order: 1% and -0.15.
For the molecule `CC(NC(=O)N(C)CC1CCCCC1O)c1ccncc1` (stereo unspecified), the “% Inhibition” value was -4% and the Z score is 0.59.
The corresponding values for `CN1CCCc2ccc(NC(=O)c3ccc(CC4CCN(S(C)(=O)=O)CC4)cc3)cc21` are 28% and -3.46.
For `O=C(NCC(=O)N1CC[C@H](CN2CCOCC2)C1)c1ccc(C(F)(F)F)cc1`, the “% Inhibition” value was 2% and the Z score is recorded as -0.32.
The corresponding values for `C[C@H]1C(=O)NCCCN1C(=O)c1coc(-c2ccccc2Cl)n1` are -7% and 1.08.
The corresponding values for `Cc1c(CNC(=O)CN(C)S(=O)(=O)c2ccc3c(c2)OCCCO3)cnn1C` are 0% and -0.03.
The corresponding values for `CNC(=O)[C@H](NC(=O)C1(CCOC)CCC1)c1ccc(F)c(F)c1` are -5% and 0.81.
For the molecule `CN1CCN([C@H]2CCN(C(=O)C(C)(C)c3ccccc3)C[C@H]2CCC(=O)O)CC1`, the “% Inhibition” value is -8% and the Z score is 1.64.
The corresponding values for `CCn1cc(NC(=O)C2(NC(=O)OC(C)(C)C)CCCC2)cn1` are -9% and 1.04.
For `Cc1ccc2c(Nc3ccc(Cl)cc3)c(C(=O)N3CCOCC3)cnc2n1`, in that order: 2% and -0.27.
For `Cn1ccnc1CCN1CCC(C)(C#N)CC1`, in that order: -1% and 0.19.
Turning to `O=C(Nc1cccc(C(O)C(F)(F)F)c1)C1CCCCO1` (stereo unspecified), the “% Inhibition” value was -24% and the Z score is listed as 3.28.
On to `O=C(Cn1ccccc1=O)Nc1ccc2oc(C3CC3)nc2c1`, for which the “% Inhibition” value is listed as -10% and the Z score is recorded as 0.99.
Take `N#Cc1ccccc1CN1CCC(Oc2ccccc2F)(C(=O)O)CC1`: the “% Inhibition” value was -22% and the Z score is on record as 1.93.
The corresponding values for `COc1cc(NC(=O)N2CC(C)(C)O[C@H]3COC[C@@H]32)n(C)n1` are -3% and 0.35.
The corresponding values for `COCCN(CC(=O)N(CCc1ccccc1)Cc1ccco1)C(=O)Nc1c(Cl)cccc1Cl` are -11% and 1.42.
The corresponding values for `C=C1C(C)(C)[C@@H]2CC[C@@]1(C(=O)N1CCn3c(C(N)=O)cnc3C1)C2` are -14% and 2.1.
As for `CCCNC(=O)C1CCN(c2nc3ncn(CC(=O)NC[C@H]4CCCO4)c(=O)c3s2)CC1`, the “% Inhibition” value was -5% and the Z score amounted to 0.72.
The corresponding values for `Cc1nc([C@@H]2CN(C)c3ccccc3O2)n(CCO)n1` are 1% and -0.12.
On to `CN1C[C@@H](n2cnc3c(F)cccc3c2=O)CC1=O`, for which the “% Inhibition” value is reported as -2% and the Z score is listed as 0.27.
